Source: the supplement of paper PMC3334620
In all, about 33,000 sequences were measured (“E-score (-0.5 to 0.5)”: median about -0.056, highest 2% from about 0.38 on). The list shows a part of the results.

biological target: Stb4 (UniProt P50104); assay: PBM E-score (8-mer binding enrichment) (E-score (-0.5 to 0.5)); higher = stronger / more preferred TF binding; most listed sequences are background and not binding sites; details: protein concentration: 200 nM; construct: GST-DNA-binding domain
Method: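 Universal 'all 10-mer' protein binding microarrays (Agilent AMADID 015681) probed with GST-tagged S. cerevisiae TFs (full-length or DBD) made by in vitro transcription/translation (PURExpress), about 100-200 nM. Bound TF was detected with fluorescent anti-GST. Each ungapped 8-mer (which stands for itself and its reverse complement) is scored by the PBM enrichment score (E-score), a modified Wilcoxon-Mann-Whitney statistic from -0.5 to +0.5, computed with the Universal PBM Analysis Suite. Scale: above 0.35 generally sequence-specific binding.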

Sequence	PBM E-score
GTATGTTA	0.0426
GTACCGTA	0.0916
CAAACGTA	-0.0982
ACTGACCT	-0.2
CTCTATCA	-0.218
GATTGGGC	-0.0616
GGAAAACA	0.206
ATGTTTTG	-0.00578
CAGTACGG	0.11
AGGCTACC	-0.208
CGCTATAC	0.0197
GCGTCAGC	-0.172
GCTTGCCC	-0.294
GTCTCAGA	-0.238
CGATAAAC	-0.0461
GCGCGATA	-0.0647
AGGACAAA	-0.112
TGCAGAAA	-0.0408
CATCTATC	-0.064
AGTAGGTG	-0.0678
TCGGGACA	0.408
GACCCTGA	-0.205
AAACCGCA	-0.078
CCCGGTTC	0.206
CACGTTCA	-0.128

Sequence	PBM E-score
AAATTGCA	0.0349
GTCTACGA	-0.19
AGTTGTCC	0.0221
ATTGAGTC	-0.0275
CGGAACGA	0.399
GTCTAACA	-0.123
AGCTCCCC	-0.0767
ACATATGT	-0.11
ACAGCGGC	0.00559
CGATCTGA	0.0879
ACGGTGTC	0.0812
CTCTCCAG	-0.261
GACCGCTC	-0.0278
AAACCCGT	-0.00663
CCGGCTTA	0.305
GATTCAGA	-0.121
CCCTACAG	-0.208
ACGCTTCA	-0.307
ATCTTCAC	0.0599
AATCAGGC	-0.174
GTTAAAGA	-0.0182
CAGTAGCA	-0.11
GATTGAGC	-0.00802
ACCCTCCT	-0.0509
ATGGCGAG	-0.296

Sequence	PBM E-score
CAGCCGTA	-0.00843
ACGTACGA	-0.092
AGTATGGA	-0.0815
AGCCCGTG	-0.0636
CACGATGA	-0.14
GGGCCGGA	0.328
GGTGCAAA	0.00524
ACCAGACG	-0.203
ATACCAGA	-0.318
CACCCCCA	-0.163
CGAAAGGA	0.153
AAAGCACG	-0.129
GCATTCTA	-0.183
AAAGCGAG	0.0678
AAGACCTG	-0.146
GCGTGGGA	-0.156
CCAAACAC	-0.143
AACCGCTG	-0.173
AATACCAG	-0.161
ACGTGTCC	0.232
AGTTATCC	0.255
TGCGGGAA	0.344
CTAGCTGA	-0.184
AGTAAGAA	-0.147
AAGAGAAA	-0.206

Sequence	PBM E-score
GAAATTGA	0.134
GCTCAACC	-0.206
ACTGTGCG	-0.0381
ATTGTGTG	-0.17
ACCTCCGA	0.349
GCCCTCCA	-0.265
ATCTACCC	0.277
CCATTACG	-0.123
CACCCCCG	0.0697
CCCACACG	0.133
AGGTTTTG	-0.055
ACCGGTGA	0.0695
ACAACTCT	-0.155
ACAACTGA	-0.204
TGTCCTAA	-0.282
GAAGCTAC	-0.0288
AAATACCA	-0.208
AAAGCAAT	-0.128
AACACAAC	-0.0226
TACGTATA	-0.253
AAGGGACA	-0.312
GGCTTACA	0.0654
GGATGGCA	0.229
AGAGTATC	-0.0687
GGGGCGAA	-0.0471

Sequence	PBM E-score
CCGAAGCG	0.38
AAGGGAAA	-0.216
ACGAGGCC	-0.0545
ACTTCCAC	0.0233
GCTTTCAC	-0.148
ATGGTGTG	-0.239
AACGGGGG	-0.143
AGATCAAC	-0.177
AGGTACCA	-0.127
ATGTTGCG	-0.0733
CATACTAG	-0.0808
ATCTAAGC	-0.192
CCTGTATC	0.011
ATCCAACA	-0.029
GCCGAGTA	0.374
GGGATACC	0.184
ATAGTGTA	-0.172
CACAAGAA	0.0592
AAGCTTCT	-0.153
AGTTTTCA	0.0335
AGGATGGG	-0.0728
AAGCAAAC	-0.0582
ACGCGAGT	-0.00223
AGATATAG	-0.0259
AGGTCTAG	-0.202

Sequence	PBM E-score
CATAGCAG	-0.259
GGTCGACA	-0.137
ACGAGCTC	0.0375
GATACCAC	0.137
TGTCTGAA	0.0284
ACCATTCC	0.198
ACGGACAG	-0.00252
AAAGAACG	0.0191
CTTTGTAA	-0.207
GAGCCGGA	0.348
AGCAAGGG	-0.0675
AACGTACC	0.0464
AGTAACCG	0.222
CGTTGGAA	0.0043
AACATTGC	-0.0246
CCTCCCCA	-0.0256
AACTCAGC	-0.0108
CGTAGGGA	-0.103
CAATGAAA	-0.161
GGGATTAC	0.0195
ATTCGGCC	0.271
GTCATCCA	-0.173
TATGCATA	-0.212
ACTTTCCA	0.0477
CATTTAGA	-0.00372

Sequence	PBM E-score
CTCAGAGA	-0.109
TGGTTAAA	-0.0509
CGCACATC	0.0014
CTCTCGTC	-0.0633
AAGGAACA	-0.101
AATGGCCG	0.171
ATATCGTG	-0.0515
GAAGTGCC	0.186
ACAGAGGG	-0.275
ATCAACCG	0.197
CCCCAGGC	-0.0392
ATTGTATC	-0.04
CTCACGGA	0.211
ACACTGCC	0.128
ATTGGGAC	0.0255
GTGAATAA	-0.153
AGGACCCT	-0.194
AGACACAA	-0.161
CGTAAAAA	0.0222
ATGCTTTG	-0.00495
ATAATTAT	0.0906
ATAAATGC	-0.165
